# Experimental data: patent US20220073613A1, “ACTIVATABLE MASKED ANTI-CTLA4 BINDING PROTEINS” (Xilio Development, Inc., priority 2018, published 2022)
# B1: Antibody 2-6: unmasked parental Antibody 2 with S239D and I332E; heavy chain SEQ ID NO: 421, light chain SEQ ID NO: 334 (antibody)
# heavy: QVQLVQSGAEVKKPGSSVKVSCKASGYTFTNYFMNWVRQAPGQGLEWMGRVDPEQGRADYAEKFKKRVTITADKSTSTAYMELSSLRSEDTAVYYCARRAMDNYGFAYWGQGTLVTVSS[human IgG1 constant region with changes left out here]
# light: EIVLTQSPDFQSVTPKEKVTITCSANSALSYMYWYQQKPDQSPKLWVHGTSNLASGVPSRFSGSGSGTDFTLTINSLEAEDAATYYCHHWSNTQWTFGGGTKVEIKRTVAAPSVFIFPPSDEQLKSGTASVVCLLNNFYPREAKVQWKVDNALQSGNSQESVTEQDSKDSTYSLSSTLTLSKADYEKHKVYACEVTHQGLSSPVTKSFNRGEC
# Experiments:
# MC38 tumors = assay: MC38 tumor volume in mouse model with a knock-in with human CTLA4; assay type: in vivo; conditions: single injection of 20 μg, 7 μg, or 2 μg; compared to Antibody 2-10
# Experimental: In another set of experiments, MC38 cells (1×10^6) were injected subcutaneously into a mouse model with a knock-in with human CTLA4. MC38 tumor-beating mice were administered a single injection of 200 μg of a test antibody (e.g., IgG control, Antibody 2-1, Antibody 2-10, ipilimumab, or an afucosylated form of ipilimumab (ipilimumab-aFuc) and immunophenotyping was performed on CD45+ splenic cells and CD45+ intratumoral cells five days after injection. In some studies, tumor volume over time was measured following a single injection of 20 μg, 7 μg, or 2 μg of the test antibody. CD45+ cells were assessed for markers including those selective for CD3+/ICOS+, CD3+ T cells, CD4+/Ki67+, CD3+/Ki67+, CD4+/ICOS+, CD4+ T cells, CD8+/ICOS+, CD8+ T cells, Tregs+/ICOS+, CD8+/Ki67+, Tregs, Tregs+/Ki67+, with relative proportions of CD45+ cells having those markers identified.
# [1] = system: peripheral blood mononuclear cells (PBMCs); assay type: cell-based, human; conditions: non-activated (without exposure to protease); compared to isotype control
# MB49 tumors = assay: MB49 murine bladder tumor model, efficacy and pharmacodynamics; assay type: in vivo, C57/BL6-huCTLA4 mice
# Experimental: Efficacy and pharmacodynamics (PD) of anti-CTLA4 antibodies were assessed using the MB49 murine bladder tumor model. Efficacy was assessed by administering each test antibody (RSV-m control antibody, ipilimumab, Antibody 2-6, Antibody 2-14, and Antibody 2-15) and then assessing tumor volume and body weight. The anti-RSV control antibody contains S239D and I332E mutations (RSV-m control antibody). Peripheral immunophenotyping was also carried out on day 5, which assessed the percentage of CD4+Ki67+ cells and the percentage of CD4+ICOS+ cells in the peripheral blood on day 5 following administration. As used herein, dosing in mg/kg is also referred to as “mpk.” MB49 cells were inoculated subcutaneously into C57/BL6-huCTLA4 mice. Treatment started when the tumors reached approximately 350 mm^3. A One-way ANOVA with Dunnett's post-test was performed to determine the statistical significance of treatment vs control (RSV-m control). *P<0.05; **P<0.01; ***P<0.001; ****P<0.0001.
# Pharmacodynamics is assessed by administering antibody to each of five cohorts of mice, with dosing (mg/kg) as shown in Table 16. Immunophenotyping among other readouts are performed in the tumor, liver, spleen, and blood. T cells are assessed by measuring Foxp3+CD25+ cells as a percentage of CD4+ cells, and CD8+ cells are measured as a percentage of CD45+ cells. Cleavage and drug levels in tumors, liver, kidney, spleen, and plasma is also assessed.
# [2] = system: Ki67+ cells in CD4+ cells; assay: Pharmacodynamic effects in cynomolgus monkeys; conditions: cynomolgus monkey, in vivo
# Experimental: In a first set of experiments, cynomolgus monkeys were administered ipilimumab, Antibody 2-6, Antibody 2-10, or an isotype control, and pharmacodynamic (PD) effects were assessed by measuring the percentage (%) of Ki67+ cells in CD4+ cells. In a second set of experiments, cynomolgus monkeys were administered Antibody 2-6, Antibody 2-10, Antibody 2-14, Antibody 2-16, or an isotype control, and pharmacodynamic effects were assessed by measuring the percentage (%) of Ki67+ cells in CD4+ cells.
# human CTLA4-Fc = target: T1, human CTLA4-Fc (Homo sapiens, UniProt P16410); assay: Low density antigen binding ELISA, with or without protease activation; conditions: Table 12, Protease +
# T1 construct: purchased R&D Systems 7268-CT
# Experimental: Masked antibodies were buffer exchanged into MMP cleavage buffer prior to incubation with the protease. For activation, protease (Anaspec, ProsecBio, and R&D Systems) was diluted to 100 ng/μL in MMP cleavage buffer (50 mM Tris pH 8.0, 150 mM NaCl, 10 mM CaCl2). APMA (10 mM in DMSO) was added to a final concentration of 1 mM. The enzyme was incubated at 37° C. for 1 hour. Activated protease was added to the masked antibodies at a ratio of 1:1000 antibody:protease (e.g., 1 ug MMP to 1 mg antibody) or an equal amount of buffer was added to negative control samples. Samples were incubated at 37° C. overnight.
# Polystyrene 96-well microplates (Fisher #07-200-591) were coated with 1 μg/mL of human CTLA4-Fc (R&D #7268-CT) per well and stored overnight at 4° C. Plates were washed with 0.05% Tween in TBS (TBS-T), blocked with 1% BSA (Sigma Aldrich #B4287-25G), and washed with TBS-T. Serial dilutions of samples containing anti-CTLA4 antibodies were made in assay buffer (PBS+0.05% Tween+1% BSA), added to plate, and shaken orbitally at 100 RPM at room temperature for one hour. After washing with TBS-T, anti-human Kappa light chain [clone: SB81a]-HRP (Abcam #ab79115) diluted to 1:8000 in assay buffer was applied to the wells and shaken at room temperature for one hour. Plates were washed with TBS-T, HRP substrate (Super Signal Pico Chemiluminescent Substrate, Thermo #37069) was applied to plate, and luminescence was recorded using a spectrophotometer (BioTek). Data was analyzed with GraphPad Prism.
# Humanized anti-CTLA4 antibodies were used in low density antigen binding ELISA described in Example 7. For assessing activation of masked activatable forms of the humanized anti-CTLA4 antibodies, recombinant proteases were used as outlined in Example 6.
# Serial dilutions of the antibodies were made in assay buffer, added to 96-well microplates coated with human CTLA4-Fc, and shaken at room temperature for one hour. Plates were washed with TBS-T, blocked with BSA, and washed again with TBS-T. The antibodies were added to plate and shaken. After washing, anti-human Kappa light chain (conjugated to HRP) in assay buffer was applied to the wells and shaken at room temperature. Plates were washed again before HRP substrate was added. Luminescence was recorded using a spectrophotometer and data analyzed with GraphPad Prism.
# FIG. 10A and FIG. 10B show binding studies with masked and unmasked versions of Antibody 2 in the absence (FIG. 10A) or presence (FIG. 10B) of protease. […] Higher concentrations of antibodies are necessary to show binding as evidenced by the shift to the right of the unmasked Antibody 2-6 and the IgG1 isotype (FIG. 10A). Masked antibodies are considered occluded by masking peptide. The occlusion of each masked antibody is shown in Table 7, below, and is calculated by dividing the EC50 for the masked antibody by the EC50 of the unmasked parental antibody, Antibody 2-6.
# Unmasked parental Antibody 2-6 was included as a control and was not exposed to protease. Protease digestion was performed according to the protocol provided in Example 6.
# A comparison of the in vitro sensitivity of the cleavable peptide sequences to select proteases is shown as radar plots in FIG. 11A-H. Activation of each antibody by each protease on the radar plot is depicted using a radar plot, where activation is depicted as ranging from 0 (no activation) to 1.0 (full activation). […] The occlusion of each masked antibody is shown in Table 12, below, and is calculated by dividing the EC50 for the masked antibody by the EC50 of the unmasked parental antibody, Antibody 2-6. Binding was conducted according to the protocol provided in Example 7 and Example 8 and proteolytic treatment of the antibodies was conducted to according to the protocol provided in Example 6 and Example 8. A solution of masked anti-CTLA4 antibody (1000 nM) was made in appropriate cleavage buffer. Two antibody samples were aliquoted into two 0.5 mL Eppendorf tubes. […]
molecule,measurement,setting,value
B1,tumor volume over time,MC38 tumors,tumor growth is suppressed
same,IL-2 production,[1],promoted strong IL-2 production
same,anti-tumor activity (tumor volume),MB49 tumors; 0.3 mg/kg dose,superior anti-tumor activity as compared to ipilimumab
same,CD8/Treg ratios in tumors,"MB49 tumors; 3 mg/kg, day 7",highest CD8/Treg ratios
same,tumor weight,"MB49 tumors; 3 mg/kg, day 7",lowest tumor weights
same,"peripheral PD effects, percentage (%) of Ki67+ cells in CD4+ cells",[2],more potent at inducing peripheral PD effects than ipilimumab
same,Occlusion,human CTLA4-Fc,1.0
